Laboratory results taken from paper PMC4336329 (PLoS ONE, 2015).
Among all 310,000 compounds or so, about 14,000 (4.5%) showed an effect of 50% or more. The effect is printed as a negative number. The list shows a part of the results.

biological target: human ether-à-go-go-related gene (hERG) potassium channel (human, UniProt Q12809); test: primary screen, population patch clamp on CHO cells stably expressing hERG
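Note: peak tail current of the secondary pulse compared with the same well before compound.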

human ether-à-go-go-related gene (hERG) potassium channel, sequence (Q12809 whole entry, looked up): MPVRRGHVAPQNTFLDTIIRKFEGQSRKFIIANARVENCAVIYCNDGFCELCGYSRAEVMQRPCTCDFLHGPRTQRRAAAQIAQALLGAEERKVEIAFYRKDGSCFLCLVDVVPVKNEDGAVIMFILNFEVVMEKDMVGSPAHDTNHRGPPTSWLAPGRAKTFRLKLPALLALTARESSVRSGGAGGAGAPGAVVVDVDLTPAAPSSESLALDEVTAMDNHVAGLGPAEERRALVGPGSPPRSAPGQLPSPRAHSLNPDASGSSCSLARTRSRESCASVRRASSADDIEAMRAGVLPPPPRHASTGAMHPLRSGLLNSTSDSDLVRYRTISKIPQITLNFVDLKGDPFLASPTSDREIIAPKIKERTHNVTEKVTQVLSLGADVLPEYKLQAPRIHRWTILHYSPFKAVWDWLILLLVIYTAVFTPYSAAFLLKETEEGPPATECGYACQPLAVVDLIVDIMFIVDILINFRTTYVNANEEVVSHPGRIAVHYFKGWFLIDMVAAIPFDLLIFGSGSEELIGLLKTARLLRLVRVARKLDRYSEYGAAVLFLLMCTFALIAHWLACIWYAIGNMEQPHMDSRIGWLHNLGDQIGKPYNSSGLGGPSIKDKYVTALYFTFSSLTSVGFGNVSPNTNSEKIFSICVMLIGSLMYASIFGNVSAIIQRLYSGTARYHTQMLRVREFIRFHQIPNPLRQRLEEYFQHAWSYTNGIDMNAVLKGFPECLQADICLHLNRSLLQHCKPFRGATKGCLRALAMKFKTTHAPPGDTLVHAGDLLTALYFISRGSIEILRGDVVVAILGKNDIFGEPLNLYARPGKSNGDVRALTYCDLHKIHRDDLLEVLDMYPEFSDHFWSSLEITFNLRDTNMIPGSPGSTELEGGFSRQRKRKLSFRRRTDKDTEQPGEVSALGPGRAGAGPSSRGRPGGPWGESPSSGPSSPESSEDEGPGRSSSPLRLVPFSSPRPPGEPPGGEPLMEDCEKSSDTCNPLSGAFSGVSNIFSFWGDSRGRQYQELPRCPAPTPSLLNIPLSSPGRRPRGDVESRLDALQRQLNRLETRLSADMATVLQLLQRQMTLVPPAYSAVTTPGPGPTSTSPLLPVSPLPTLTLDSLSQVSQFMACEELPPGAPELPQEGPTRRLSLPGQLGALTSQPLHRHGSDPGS

| Compound | hERG current change (%, negative = inhibition) at 10uM [%] |
| --- | --- |
| Cc1cccc(OCCCCc2c(C)n[nH]c2C)c1 | 5.95 |
| Cl.N=c1c[n+](-c2ccc(Cl)cc2)[n-]o1 | 4.05 |
| CC(C)Cn1c(NCCO)nc2ccccc21 | -1.97 |
| CN1CCN(Cc2nc3cc(NC(=O)COc4ccc([N+](=O)[O-])cc4)ccc3n2C)CC1 | 9.29 |
| COc1ccc(N2CCN(C(=O)c3ccc4c(Cl)c5c(nc4c3)CCCC5)CC2)cc1 | 6.33 |
| COc1cccc(-c2cnc(OC(C)(C)C)nc2OC(C)(C)C)c1 | 14.7 |
| Cc1cc(NC(=O)c2ccc3c(c2)OCO3)ccc1NC(=O)c1ccco1 | -3.87 |
| O=C(Cc1c[nH]c2ccccc12)NCc1ccccc1F | 24.5 |
| Cc1[nH]n(C(N)=S)c(=O)c1N=Nc1ccc([N+](=O)[O-])cc1Cl | -5.43 |
| O=C(c1cccc([N+](=O)[O-])c1)N1CC2C3C=CC(C3)C2C1 (centres unmarked) | 17.8 |
| COc1cccc(C(=O)Nc2cc(C(=O)NCc3ccc(C)cc3)ccc2N2CCC3(CC2)CC(c2ccccc2)=NO3)c1 | -5.34 |
| O=C(NNS(=O)(=O)c1ccc(Br)cc1)c1ccccc1-n1cccc1 | -10.5 |
| O=C(O)/C=C\C(=O)NNC(=O)c1cc(-c2ccccc2)n[nH]1 | 6 |
| O=C(CN1CCc2cc3c(cc2C1)OCCCO3)Nc1ccc(S(=O)(=O)N2CCCC2)cc1 | 9.41 |
| CC(NS(=O)(=O)c1ccc2c(c1)CC(C)N2C(=O)C1CC1)c1ccccc1 (centres unmarked) | 8.28 |
| Cc1ccnc(SCC(=O)Nc2c(C)n(C)n(-c3ccccc3)c2=O)n1 | 17.7 |
| CCN(CC)Cc1c(O)ccc2occ(C(=O)c3ccccc3)c12 | -72.6 |
| O=C(Nc1cccc(Cl)c1)Nc1ccc(Br)cc1F | 9.99 |
| CCc1cc2c(=O)c(-c3ccc(F)cc3)c(C(F)(F)F)oc2cc1OCC(=O)O | 18.4 |
| CC(C)OC(=O)CSc1nnc(-c2ccc(O)cc2)n1Cc1ccccc1 | -18.4 |
| Cc1ccc(C(=O)NC2CCCC2)s1 | 12.7 |
| Nc1nc(SCC(=O)c2ccc(Br)s2)n[nH]1 | 22.4 |

| Compound | hERG current change (%, negative = inhibition) at 10uM [%] |
| --- | --- |
| O=[N+]([O-])c1cccc(CN2CCN(S(=O)(=O)Cc3ccccc3)CC2)c1 | -2.95 |
| O=C(CN1CCCCC1)N1CCCc2c1c(=O)oc1ccc(OCc3ccccc3)cc21 | -54.6 |
| O=C(COC(=O)C1CCC(=O)N1)Nc1ccccc1Br (centres unmarked) | 1.21 |
| COc1ccccc1N1CCN(Cc2cc3c(cc2[N+](=O)[O-])OCO3)CC1 | -28 |
| CC(=O)c1ccc(NS(=O)(=O)Cc2ccccc2)cc1 | 3.41 |
| CCN(CC)S(=O)(=O)c1cccc(C(=O)N/N=C/c2cc(OC)c(O)c(OC)c2)c1 | -16.8 |
| CSc1cccc(N2CC(C(=O)NCCN3C(=O)S/C(=C\c4cccnc4)C3=O)CC2=O)c1 (centres unmarked) | -68.3 |
| NC(=O)Cn1c(=O)n(-c2ccccc2)c(=O)c2oc3ccccc3c21 | 1.97 |
| COC(=O)c1sc(NC(=O)COc2cccc3ccccc23)nc1C | 9.42 |
| C[C@H](O)CC(=O)[O-].[Na+] | 4.73 |
| CN(C)S(=O)(=O)c1ccc(N2CCCC2)c(C(=O)Nc2cccc(F)c2)c1 | 0.224 |
| CCOC(=O)N1CCN(S(=O)(=O)c2ccc(C(=O)Nc3nnc(C)o3)cc2)CC1 | 4.83 |
| O=C(Nc1ccccc1)C1=C[C@@H](c2coc3ccccc3c2=O)C[C@@H](OCCCCO)O1 | -41.1 |
| Cc1nn(-c2ncc(C(F)(F)F)cc2Cl)c(=O)n1-c1c(F)cccc1F | 16.1 |
| S=c1[nH]nc(-c2c[nH]c3ccccc23)o1 | 25.4 |
| O=C(CSc1n[nH]c(=O)n1-c1cccnc1)N1CCOCC1 | 12 |
| CCC(C)(C)NC(=O)Cc1ccc(OC)c(OC)c1 | 9.29 |
| COc1cccc(C(=O)Nc2ccc(NC(=O)c3ccco3)cn2)c1 | -15.1 |
| CCOc1ccc(CN2CCN(Cc3cc4ccccc4o3)CC2CCO)cc1 (centres unmarked) | -80.4 |
| COc1ccc(N2CCN(C(C)C(=O)N3CC(C)OC(C)C3)CC2)cc1.O=C(O)C(=O)O (centres unmarked) | 18 |
| Br.CCC1(C)CC(c2nc(-c3ccc(OC)cc3)cs2)CCS1 (centres unmarked) | 1.55 |
| Cc1ccc(/C=C/C(=O)NCCc2c[nH]c3ccccc23)o1 | -7.78 |

| Compound | hERG current change (%, negative = inhibition) at 10uM [%] |
| --- | --- |
| COC(=O)c1sc2nc(SCc3ccccc3C#N)n(N)c(=O)c2c1C | 9 |
| COC(=O)Sc1nc(N2CCOCC2)c2c(c1C#N)CC(C)(C)OC2 | 6.22 |
| Cc1ccc(C(=O)NCCCNCCCN(C)C)cn1.O=C(O)/C=C/C(=O)O | -8.66 |
| Cc1scc(C(=O)N/N=C/c2ccc(OCC(C)C)cc2)c1C | 9.36 |
| Cc1cc(C)c2cc(C#N)c(N3CCCN(C(=S)NCCCN(C)C)CC3)nc2c1 | -25.7 |
| Cc1cc(C(=O)Nc2ccc(Nc3ccccc3)cc2)ccc1[N+](=O)[O-] | 17.3 |
| O=C(CSc1ccccn1)N1CCN(c2cccc(Cl)c2)CC1 | -11.3 |
| O=C(Nc1ccccc1F)c1ccc(-n2cncn2)nc1 | 4.88 |
| Nc1c(N(CCCO)C(=O)C2CCCC2)c(=O)[nH]c(=O)n1Cc1ccccc1 | 11.3 |
| CCN1CCN(CCCNC(=O)c2ccc3c(c2)N(Cc2ccccc2)CCS3)CC1 | -39.3 |
| COC(=O)C1=C(c2ccc(F)cc2OCc2ccccc2)C[C@@H]2CC[C@H]1N2C(=O)NCc1ccc2[nH]ccc2c1 | 19.4 |
| COc1cccc(C(C(=O)NC(C)(C)C)N(C(=O)CCC(=O)Nc2cc(C)on2)c2ccc3c(c2)OCCO3)c1OC (centres unmarked) | 14.2 |
| Cc1c(C(=O)N(CCc2ccccc2)Cc2ccccc2)cccc1[N+](=O)[O-] | 15.6 |
| COc1ccccc1C(=O)NCCC(=O)OCC(=O)Nc1ccc(S(N)(=O)=O)cc1 | -2.51 |
| Cc1oc2ccc(O)c(CN3CCOCC3)c2c1C(=O)c1ccc(Cl)cc1 | -41 |
| COC(=O)c1c(C)[nH]c(C(=O)OC(C)C(=O)N2CCOCC2)c1C (centres unmarked) | -0.266 |
| COc1cc(C(=O)NCC2(N3CCCCC3)CCCCC2)ccc1OCC(=O)N1CCOCC1 | -3.67 |
| O=C(CSc1nnnn1-c1ccccc1)NCC1(N2CCCCC2)CCCCC1 | -62.3 |
| CCOC(=O)CCC(NC(=O)c1cncc(O)c1)C(=O)OCC.Cl (centres unmarked) | 6.86 |
| Cc1cccc(NC(=O)COC(=O)Cc2cccc(C(F)(F)F)c2)c1C | 22.8 |
| Cc1ccc(S(=O)(=O)c2c(N)n(CCN3CCOCC3)c3nc4ccccc4nc23)cc1C | -20.6 |
| COc1ccccc1/C=C/C(=O)OCC(=O)Nc1ccc(Cl)cn1 | 38.9 |

| Compound | hERG current change (%, negative = inhibition) at 10uM [%] |
| --- | --- |
| CC(C)CNC(=O)COC(=O)c1ccc(F)cc1Cl | 10.7 |
| CN(C)c1ccc(C2CC(c3cccc(NS(C)(=O)=O)c3)=NN2C(=O)c2ccccc2)cc1 (centres unmarked) | 14.1 |
| COCCN(CC(=O)NCc1ccccc1)C(=O)CCC(=O)Nc1ccccn1 | 4.54 |
| CC1(C)OC(c2ccccc2)=C/C(=C/C=C2C(=O)c3ccccc3C2=O)O1 | 17.9 |
| NC(=O)[C@@H]1CC2(CC(c3cccc(NC(=O)[C@@H]4CCC(=O)N4)c3)=NO2)CN1C(=O)Cc1ccc([N+](=O)[O-])cc1 (some centres unmarked) | 11.5 |
| BrC(/C=N/Nc1nc(N2CCOCC2)nc(N2CCOCC2)n1)=C/c1ccccc1 | -27 |
| Cc1nnc(SCC(=O)NC2CCCCCC2)n1C(C)C | -2.12 |
| COc1ccc(N2CCN(C3CC(=O)N(c4ccc5c(c4)OCCO5)C3=O)CC2)cc1 (centres unmarked) | -2.06 |
| O=C(O)C(=O)O.c1ccc(CCNc2nc(-c3ccccn3)cs2)cc1 | -8.9 |
| Cc1ccc2c(c1C)OC(=O)CC2(C)C | 4.35 |
| CN(C(=O)CN1C(=O)NC2(CCc3ccccc32)C1=O)C1CCS(=O)(=O)C1 (centres unmarked) | 16.5 |
| CCOC(=O)C(C)n1cnc2c(nnn2-c2cccc(OC)c2)c1=O (centres unmarked) | 13.4 |
| COc1ccc(NC(=O)C2CCCN2S(=O)(=O)c2cccc3cccnc23)cc1OC (centres unmarked) | -3.59 |
| CS(=O)(=O)N1CCN(c2ccccc2NC(=O)CSc2ccc(Cl)cc2)CC1 | -14.2 |
| COc1ccc(CNC(=O)Cn2ncn3cccc3c2=O)cc1 | 3.12 |
| CC(C)NC(=O)Cn1c(SCC(=O)N2CCCCCC2)nc2ccccc21 | 9.85 |
| C=CCc1cccc(C=Nc2cc(Br)ccc2O)c1O | -0.622 |
| Cc1ccc(S(=O)(=O)N/N=C/c2cccc3c2OCCO3)cc1 | -14.9 |
| CCN1CCN(C(c2ccccc2)c2nnnn2Cc2ccc3c(c2)OCO3)CC1.Cl (centres unmarked) | -39.1 |
| Cc1cc(OCCCn2ccnc2)ccc1[N+](=O)[O-].O=C(O)C(=O)O | -2.51 |
